Results from the supplement of paper PMC4967469.
By IC50 is meant the dose at which the fit gives 50% viability; a limit (>, <) means that the fit lies beyond the doses tested. AUC, from the same fit, is the share of area under the viability curve across the 256-fold dose range; values near 1 show little effect.

Compound: COc1ccc(C2=N[C@@H](c3ccc(Cl)cc3)[C@@H](c3ccc(Cl)cc3)N2C(=O)N2CCNC(=O)C2)c(OC(C)C)c1 [Nutlin-3a]
Assay: Viability of human cancer cell lines after 72 h of drug (GDSC screen)
Protocol: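 Human cancer cell lines in 384-well plates, medium with 10% serum, drug for 72 h over a 256-fold dose range (nine 2-fold or five 4-fold steps up to the top dose). Adherent lines were fixed and stained with the nucleic acid dye Syto60, suspension lines read with resazurin; signal relative to control wells, capped at 0 and 100%. One two-parameter sigmoid per drug and line, fitted in a mixed model over all curves with the slope shared within a line.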

RPMI-7951 (melanoma, adherent, top dose 8 µM)
AUC: 0.978
IC50: > 8 µM

RPMI-8226 (myeloma, suspension, top dose 8 µM)
AUC: 0.981
IC50: > 8 µM

RPMI-8402 (T-cell lymphoblastic leukaemia, suspension, top dose 8 µM)
AUC: 0.98
IC50: > 8 µM

RPMI-8866 (chronic myeloid leukaemia, suspension, top dose 8 µM)
AUC: 0.673
IC50: 1.46 µM

RS4-11 (leukaemia, suspension, top dose 8 µM)
AUC: 0.738
IC50: 2.23 µM

RT4 (bladder, adherent, top dose 8 µM)
AUC: 0.987
IC50: > 8 µM

RVH-421 (melanoma, adherent, top dose 8 µM)
AUC: 0.801
IC50: 5.72 µM

RXF393 (kidney, adherent, top dose 8 µM)
AUC: 0.922
IC50: > 8 µM

Raji (Burkitt lymphoma, suspension, top dose 8 µM)
AUC: 0.982
IC50: > 8 µM

Ramos-2G6-4C10 (Burkitt lymphoma, suspension, top dose 8 µM)
AUC: 0.941
IC50: > 8 µM

SAS (head and neck, adherent, top dose 8 µM)
AUC: 0.951
IC50: > 8 µM

SAT (head and neck, adherent, top dose 8 µM)
AUC: 0.913
IC50: > 8 µM

SBC-1 (small cell lung carcinoma, suspension, top dose 8 µM)
AUC: 0.989
IC50: > 8 µM

SBC-3 (small cell lung carcinoma, adherent, top dose 8 µM)
AUC: 0.862
IC50: 5.86 µM

SBC-5 (small cell lung carcinoma, adherent, top dose 8 µM)
AUC: 0.989
IC50: > 8 µM

SCC90 (head and neck, adherent, top dose 8 µM)
AUC: 0.981
IC50: > 8 µM

SCC-9 (head and neck, adherent, top dose 8 µM)
AUC: 0.975
IC50: > 8 µM

SCC-15 (head and neck, adherent, top dose 8 µM)
AUC: 0.947
IC50: > 8 µM

SCC-25 (head and neck, adherent, top dose 8 µM)
AUC: 0.983
IC50: > 8 µM

SCH (stomach, adherent, top dose 8 µM)
AUC: 0.982
IC50: > 8 µM

SF126 (glioma, adherent, top dose 8 µM)
AUC: 0.983
IC50: > 8 µM

SF268 (glioma, adherent, top dose 8 µM)
AUC: 0.984
IC50: > 8 µM

SF295 (glioma, adherent, top dose 8 µM)
AUC: 0.945
IC50: > 8 µM

SF539 (glioma, adherent, top dose 8 µM)
AUC: 0.983
IC50: > 8 µM

SH-4 (melanoma, adherent, top dose 8 µM)
AUC: 0.807
IC50: 7.31 µM

SHP-77 (small cell lung carcinoma, semi-adherent, top dose 8 µM)
AUC: 0.842
IC50: 4.78 µM

SIMA (neuroblastoma, adherent, top dose 8 µM)
AUC: 0.889
IC50: > 8 µM

SISO (cervix, adherent, top dose 8 µM)
AUC: 0.988
IC50: > 8 µM

SJRH30 (rhabdomyosarcoma, adherent, top dose 8 µM)
AUC: 0.975
IC50: > 8 µM

SK-CO-1 (large intestine, adherent, top dose 8 µM)
AUC: 0.876
IC50: 7.19 µM

SK-ES-1 (Ewing sarcoma, semi-adherent, top dose 8 µM)
AUC: 0.963
IC50: > 8 µM

SK-GT-2 (stomach, adherent, top dose 8 µM)
AUC: 0.94
IC50: > 8 µM

SK-GT-4 (oesophagus, adherent, top dose 8 µM)
AUC: 0.973
IC50: > 8 µM

SK-HEP-1 (liver, adherent, top dose 8 µM)
AUC: 0.796
IC50: 3.48 µM

SK-LMS-1 (soft tissue, adherent, top dose 8 µM)
AUC: 0.978
IC50: > 8 µM

SK-LU-1 (lung adenocarcinoma, adherent, top dose 8 µM)
AUC: 0.902
IC50: > 8 µM

SK-MEL-1 (melanoma, suspension, top dose 8 µM)
AUC: 0.978
IC50: > 8 µM

SK-MEL-2 (melanoma, adherent, top dose 8 µM)
AUC: 0.985
IC50: > 8 µM

SK-MEL-3 (melanoma, adherent, top dose 8 µM)
AUC: 0.983
IC50: > 8 µM

SK-MEL-5 (melanoma, adherent, top dose 8 µM)
AUC: 0.833
IC50: 6.87 µM

SK-MEL-28 (melanoma, adherent, top dose 4 µM)
AUC: 0.988
IC50: > 4 µM

SK-MEL-30 (melanoma, adherent, top dose 4 µM)
AUC: 0.971
IC50: > 4 µM

SK-MEL-31 (melanoma, adherent, top dose 8 µM)
AUC: 0.939
IC50: > 8 µM

SK-MES-1 (lung squamous cell carcinoma, adherent, top dose 8 µM)
AUC: 0.963
IC50: > 8 µM

SK-MG-1 (glioma, adherent, top dose 8 µM)
AUC: 0.986
IC50: > 8 µM

SK-MM-2 (myeloma, suspension, top dose 8 µM)
AUC: 0.987
IC50: > 8 µM

SK-N-AS (neuroblastoma, adherent, top dose 8 µM)
AUC: 0.984
IC50: > 8 µM

SK-N-FI (neuroblastoma, adherent, top dose 8 µM)
AUC: 0.983
IC50: > 8 µM

SK-N-SH (neuroblastoma, adherent, top dose 8 µM)
AUC: 0.706
IC50: 1.89 µM

SK-OV-3 (ovary, adherent, top dose 8 µM)
AUC: 0.979
IC50: > 8 µM

SK-PN-DW (Ewing sarcoma, adherent, top dose 8 µM)
AUC: 0.914
IC50: > 8 µM

SK-UT-1 (soft tissue, adherent, top dose 4 µM)
AUC: 0.989
IC50: > 4 µM

SKG-IIIa (cervix, adherent, top dose 8 µM)
AUC: 0.983
IC50: > 8 µM

SKM-1 (haematopoietic neoplasm, suspension, top dose 8 µM)
AUC: 0.848
IC50: 6.92 µM

SKN (uterus, adherent, top dose 8 µM)
AUC: 0.948
IC50: > 8 µM

SKN-3 (head and neck, adherent, top dose 8 µM)
AUC: 0.965
IC50: > 8 µM

SLVL (B-cell lymphoma, suspension, top dose 8 µM)
AUC: 0.918
IC50: > 8 µM

SNB75 (glioma, adherent, top dose 8 µM)
AUC: 0.979
IC50: > 8 µM

SNG-M (endometrium, adherent, top dose 8 µM)
AUC: 0.788
IC50: 3.44 µM

SNU-61 (large intestine, adherent, top dose 8 µM)
AUC: 0.985
IC50: > 8 µM

SNU-81 (large intestine, adherent, top dose 8 µM)
AUC: 0.967
IC50: > 8 µM

SNU-182 (liver, adherent, top dose 8 µM)
AUC: 0.985
IC50: > 8 µM

SNU-387 (liver, adherent, top dose 8 µM)
AUC: 0.984
IC50: > 8 µM

SNU-407 (large intestine, adherent, top dose 8 µM)
AUC: 0.854
IC50: > 8 µM

SNU-423 (liver, adherent, top dose 8 µM)
AUC: 0.983
IC50: > 8 µM

SNU-449 (liver, adherent, top dose 8 µM)
AUC: 0.985
IC50: > 8 µM

SNU-C1 (large intestine, suspension, top dose 8 µM)
AUC: 0.934
IC50: > 8 µM

SNU-C2B (large intestine, adherent, top dose 8 µM)
AUC: 0.928
IC50: > 8 µM

SNU-C5 (large intestine, adherent, top dose 8 µM)
AUC: 0.986
IC50: > 8 µM

SR (lymphoid neoplasm, suspension, top dose 8 µM)
AUC: 0.669
IC50: 1.4 µM

ST486 (Burkitt lymphoma, suspension, top dose 8 µM)
AUC: 0.982
IC50: > 8 µM

STS-0421 (soft tissue, adherent, top dose 8 µM)
AUC: 0.812
IC50: 5.18 µM

SU8686 (pancreas, adherent, top dose 4 µM)
AUC: 0.983
IC50: > 4 µM

SU-DHL-4 (B-cell lymphoma, suspension, top dose 8 µM)
AUC: 0.997
IC50: > 8 µM

SU-DHL-5 (B-cell lymphoma, suspension, top dose 8 µM)
AUC: 0.795
IC50: 2.74 µM

SU-DHL-6 (B-cell lymphoma, suspension, top dose 8 µM)
AUC: 0.99
IC50: > 8 µM

SU-DHL-8 (B-cell lymphoma, suspension, top dose 8 µM)
AUC: 0.988
IC50: > 8 µM

SU-DHL-10 (B-cell lymphoma, suspension, top dose 8 µM)
AUC: 0.998
IC50: > 8 µM

SU-DHL-16 (B-cell lymphoma, suspension, top dose 8 µM)
AUC: 0.991
IC50: > 8 µM

SUIT-2 (pancreas, adherent, top dose 4 µM)
AUC: 0.932
IC50: > 4 µM

SUP-B8 (B-cell leukaemia, suspension, top dose 8 µM)
AUC: 0.982
IC50: > 8 µM

SUP-B15 (lymphoblastic leukaemia, suspension, top dose 8 µM)
AUC: 0.639
IC50: 1.19 µM
